# Results published in the supplement of paper PMC10441789.
# The list shows a part of the results. Antibody binding of pooled human sera (four to six donors per pool; dilution not stated) to peptides of the Trypanosoma cruzi antigen TSSA on microarrays. Quantile-normalised fluorescence in arbitrary units, mean of duplicate arrays; higher = more binding. No active / inactive call. The uninfected pools are read here as the healthy donors of the same country. The strongest signals lie near the top of the scale (about 60,000).
# Legend:
# Assay in all cases: antibody binding signal (normalised fluorescence) (arbitrary fluorescence units); higher = stronger serum antibody binding to peptide
# [1] = system: pooled sera of chronic Chagas disease patients, Argentina
# Experimental: (§1)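 Microarray of 15-residue peptides over residues 30-55 of Trypanosoma cruzi TSSAII, each with 1 to 10 substitutions at naturally variable positions, probed with one serum pool per country.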
# [2] = system: pooled sera of chronic Chagas disease patients, Bolivia
# Experimental: as §1
# [3] = system: pooled sera of chronic Chagas disease patients, Brazil
# Experimental: as §1
# [4] = system: pooled sera of chronic Chagas disease patients, Colombia
# Experimental: as §1
# [5] = system: pooled sera of chronic Chagas disease patients, Mexico
# Experimental: as §1
# [6] = system: pooled sera of chronic Chagas disease patients, USA
# Experimental: as §1
# [7] = system: pooled sera of uninfected people, Argentina
# Experimental: as §1
# [8] = system: pooled sera of uninfected people, Bolivia
# Experimental: as §1
# [9] = system: pooled sera of uninfected people, Brazil
# Experimental: as §1
# [10] = system: pooled sera of uninfected people, Colombia
# Experimental: as §1
# [11] = system: pooled sera of uninfected people, Mexico
# Experimental: as §1
# [12] = system: pooled sera of uninfected people, USA
# Experimental: as §1
Sequence,antibody binding signal [1],antibody binding signal [2],antibody binding signal [3],antibody binding signal [4],antibody binding signal [5],antibody binding signal [6],antibody binding signal [7],antibody binding signal [8],antibody binding signal [9],antibody binding signal [10],antibody binding signal [11],antibody binding signal [12]
KDKKAATGGTPSQSG,306,271,180,221,917,339,185,77.3,174,243,228,105
TPPSGKDKKPATGEA,31400,4260,16600,241,53000,11500,582,671,142,346,165,231
SGKDKKPAAGGTPSQ,606,274,403,3030,1180,1130,112,71.5,585,638,87,90.8
GKEKKPATGEAPSQS,41300,10200,40100,5440,6880,31600,779,156,120,168,98.1,285
KENKAAAGETPSQPG,1400,722,33300,163,168,2820,142,227,108,167,182,157
TSSTPPSGTEKKAAA,37500,4710,34900,1060,14300,4640,2220,357,174,218,104,643
EKKAAAGETPSPPGA,1000,235,1490,421,306,4520,148,1020,106,132,215,1390
SSTPPSGTDKKPATG,42200,20000,46100,13800,51000,12400,1220,948,370,291,4410,443
SGKDNKPATGETPSQ,35400,27500,38100,431,335,25900,485,786,290,291,1850,129
TPPSGTDNKPAAGGT,52800,49400,51700,8870,33200,23900,1340,979,1840,474,1450,375
GTDNKAAAGGAPSQP,404,1950,29800,2690,378,316,184,643,1510,252,225,194
DKKPAAGEAPSQPGA,9630,13000,43700,153,261,17400,140,197,194,150,208,147
KDNKAAAGGAPSPSG,190,190,411,1250,180,342,256,2180,142,139,78.3,94
SGTDKKAAAGGAPSP,272,210,1000,10600,1100,1010,235,167,154,234,459,183
DNKTATGGTPSPSGA,489,1170,733,817,392,630,301,183,646,448,330,193
GKDKKTATGEAPSQP,6390,3590,26000,720,842,13300,165,80.5,87.6,80.1,105,89.8
SGKDNKTAAGGTPSP,1400,239,1090,5980,941,2750,178,116,448,465,294,148
KTAAGGTPSQSGASS,1070,186,229,5570,761,1060,384,169,269,89.5,672,201
SGKEKKPATGETPSQ,28600,2800,24800,1770,5540,20600,432,424,128,206,696,340
KENKAAAGGAPSQPG,171,248,7670,1260,235,1440,218,81.5,112,108,75.4,115
KEKKAATGEAPSPPG,11100,3090,18300,137,164,17700,344,74.4,99.8,182,77.8,113
GKENKTATGETPSQP,9420,3000,34400,11200,11100,20300,518,277,276,175,424,227
GKDNKAATGEAPSPP,28000,19000,34600,5980,6720,24500,264,310,128,293,91.8,108
NKPATGETPSPPGAS,16000,27700,34100,252,226,22400,525,1230,457,554,1470,1810
STPPSGKEKKTATGE,17800,1190,896,606,23800,1570,509,859,123,308,171,173

Sequence,antibody binding signal [1],antibody binding signal [2],antibody binding signal [3],antibody binding signal [4],antibody binding signal [5],antibody binding signal [6],antibody binding signal [7],antibody binding signal [8],antibody binding signal [9],antibody binding signal [10],antibody binding signal [11],antibody binding signal [12]
PPSGTENKPAAGGAP,54400,51900,52700,830,13100,21100,3900,3160,1060,1190,585,1370
TSSTPPSGTENKAAT,48700,51000,53100,421,3610,28900,3410,632,327,611,240,645
ISTPPSGKENKTATG,14800,5520,11500,975,3110,3660,2520,1190,181,580,365,424
EKKTATGGTPSQSGA,718,533,679,4070,1120,1760,387,499,422,971,359,559
PPSGKDNKPAAGEAP,1270,6150,25300,536,8610,20800,712,807,359,331,370,246
STPPSGKDKKTATGG,9840,690,2440,1960,35000,1640,219,277,102,170,97.3,123
GKDKKAATGGTPSPP,388,421,184,678,693,663,161,71.2,148,253,89,112
GKENKTAAGETPSPS,8960,1730,11700,15100,10500,17200,658,211,149,181,318,1450
GTEKKTAAGGTPSPP,709,210,198,11700,811,2430,137,454,801,396,281,151
GTDKKPAAGGTPSQP,434,249,1130,8720,549,899,212,322,1200,185,413,222
SGTDNKAAAGGTPSQ,290,285,45300,2810,406,1040,155,704,2690,370,205,259
SGTDKKAATGGAPSP,2300,224,3240,4390,2130,1750,435,685,128,760,445,195
NKAAAGEAPSQPGAS,7380,32600,44900,225,206,11400,543,1220,321,432,307,1050
GTEKKPATGGAPSQP,2890,717,12100,1490,2170,2370,324,1710,683,134,232,1270
TPPSGTDNKTATGGA,43400,42600,46800,1120,20700,11300,1480,682,1600,286,298,396
SSTPPSGKDKKAAAG,7470,522,924,440,34000,743,159,353,115,153,128,116
GTDKKAAAGEAPSPS,251,298,4080,1600,449,10300,182,228,97.7,101,196,111
GTDKKPAAGGAPSQP,282,242,6440,9950,829,972,175,307,328,136,306,172
TSSTPPSGTENKPAA,47400,42100,47800,1630,5530,38100,7810,1620,899,919,724,982
GKENKPAAGETPSPS,7140,1530,16600,9720,8670,13800,680,466,157,144,422,1810
KENKAAAGGTPSQPG,170,198,481,988,145,1290,212,81.1,638,152,185,84.1
DNKAATGETPSPSGA,3260,6300,18700,212,154,12800,162,221,167,169,164,1270
EKKTATGEAPSPSGA,10900,14600,9560,337,780,19000,288,688,153,80.6,185,690
TPPSGKDNKTAAGGA,1050,325,1530,1980,18400,3010,1060,483,206,247,105,303
GKENKAAAGEAPSPP,5150,1060,20300,9850,8180,19700,483,107,95.9,110,116,118
